Here are results for 1 molecule from publication PMC12661054, “The CIP2A-TOPBP1 axis facilitates mitotic DNA repair via MiDAS and MMEJ” (Nature Communications, 2025).

One assay deals with RPE1 p53-/- FRT/TR cells. The assay can be described thus: Micronuclei formation, RPE1 p53-/- FRT/TR cells. It is filed as cell-based, human. The settings on record: 5 µM ART558, 18 h, with 400 nM aphidicolin; SLX4 T1260A Cl.1 and Cl.2; three independent experiments. As to the method: For detection of EdU incorporation in mitosis and the analysis of recruitment of TOPBP1, CIP2A, MUS81, ERCC1, TOPBP1-mAID-Clover, eGFP tagged SLX4 and eGFP tagged Polθ in RPE1 p53^-/- FRT/TR and DLD1 BRCA2^-/-cells, respectively, cells were grown on 13 mm 1.5 thickness coverslips and treated as described. Subsequently cells were simultaneously fixed and permeabilised in PTEMF buffer (20 mM PIPES pH 6.8, 10 mM EGTA, 0.2% Triton X-100, 1 mM MgCl2 and 4% formaldehyde) for 10 minutes at room temperature. For detection of micronuclei, cells were fixed in 250 mM HEPES pH 7.5, 0.1% Triton X-100, 4% PFA in PBS for 20 minutes at 4 °C.
Coverslips were then incubated for 5 min in 1x PBS with three buffer changes followed by incubation with 0.5% Triton X-100/ PBS for 10 min at room temperature. Coverslips were then incubated for 5 minutes in 1x PBS with three buffer changes. […]
(§1) Quantification was carried out using FIJI (ImageJ, RRID:SCR_003070) software, CellProfiler (Broad Institute), Harmony (Revvity) or using Aivia (Leica Microsystems). Images of mitotic cells were analysed in 3D with maximum Z projections used for representative images in the manuscript to assist with visualisation.For interphase cells 2D images were analysed.

For assay [1], the system named is RPE1 p53-/- FRT/TR SLX4 T1260A cells. The assay can be described thus: γH2AX and 53BP1 foci, RPE1 p53-/- FRT/TR SLX4 T1260A cells. The conditions noted are these: Polθ inhibition in SLX4 Thr1260Ala mutant cells. It is filed as cell-based, human. As to the method:
Alternatively, for the detection of colocalisation of γH2AX, MUS81/SLX4/CIP2A, FANCD2/ CIP2A, detection of recruitment of γH2AX, 53BP1, MDC1, SLX4, in interphase and mitosis in either DLD1, RPE1 p53^-/- FRT/TR, RPE1 p53^-/- PAC^-/- WT or BRCA1^-/- or the detection of recruitment of SLX4 or MUS81 in RPE1 p53^-/- PAC^-/- BRCA1^-/- the following procedure was used. Cells were fixed in 2% BSA/PBS for 15 min at room temperature, followed by 3 × 5 min washes in 1xPBS. Coverslips were then incubated in 0.5% Triton-X/PBS for 10 min at room temperature, followed by a further 3 × 5 min 1xPBS washes. Coverslips were then incubated in blocking buffer (2% BSA, 0.05% Tween-20) for 1 h at room temperature, followed by incubation in respective primary antibodies overnight at 4 °C. Coverslips were then washed 3x for 5 min in 1x PBS followed by incubation for 1 h at room temperature in blocking buffer containing secondary antibodies. […]
as §1

Assay [2] shares this test system. The assay can be described thus: Proliferation (Incucyte), RPE1 p53-/- FRT/TR SLX4 T1260A cells.

The structures appear in SMILES notation.

Regarding `Cc1cccc(N(C)C(=O)[C@@H]2[C@H](O)CCN2c2nc(C)cc(C(F)(F)F)c2C#N)c1` [Polθi], the “micronuclei formation, SLX4 Thr1260Ala cells” value with RPE1 p53-/- FRT/TR cells is on record as “an even greater increase in micronuclei formation, indicating an additive effect”. Further, in assay [1], the “γH2AX and 53BP1 foci formation” value was “further exacerbated”. For the same molecule, in assay [2] (5 µM ART558 with 400 nM aphidicolin, confluence normalised to day 0, three independent experiments), the “proliferation, SLX4 Thr1260Ala knock-in cells” value is “proliferation defects that were exacerbated”. Besides, in assay [2] (Polθ inhibition, siBRCA1 or siBRCA2), the “proliferation, SLX4 Thr1260Ala cells with knockdown of BRCA1 or BRCA2” value is “further exacerbated by Polθ inhibition”.
